According to PMC4336329 (PLoS ONE, 2015):
About 14,000 (4.5%) of roughly 310,000 compounds showed an effect of 50% or more. Effects have a minus sign here. The list shows a part of the results.

molecular target: human ether-à-go-go-related gene (hERG) potassium channel (human, UniProt Q12809); experiment: primary screen, population patch clamp on CHO cells stably expressing hERG
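Note: peak tail current of the secondary pulse compared with the same well before compound.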

Sequence of human ether-à-go-go-related gene (hERG) potassium channel (Q12809 whole entry, looked up): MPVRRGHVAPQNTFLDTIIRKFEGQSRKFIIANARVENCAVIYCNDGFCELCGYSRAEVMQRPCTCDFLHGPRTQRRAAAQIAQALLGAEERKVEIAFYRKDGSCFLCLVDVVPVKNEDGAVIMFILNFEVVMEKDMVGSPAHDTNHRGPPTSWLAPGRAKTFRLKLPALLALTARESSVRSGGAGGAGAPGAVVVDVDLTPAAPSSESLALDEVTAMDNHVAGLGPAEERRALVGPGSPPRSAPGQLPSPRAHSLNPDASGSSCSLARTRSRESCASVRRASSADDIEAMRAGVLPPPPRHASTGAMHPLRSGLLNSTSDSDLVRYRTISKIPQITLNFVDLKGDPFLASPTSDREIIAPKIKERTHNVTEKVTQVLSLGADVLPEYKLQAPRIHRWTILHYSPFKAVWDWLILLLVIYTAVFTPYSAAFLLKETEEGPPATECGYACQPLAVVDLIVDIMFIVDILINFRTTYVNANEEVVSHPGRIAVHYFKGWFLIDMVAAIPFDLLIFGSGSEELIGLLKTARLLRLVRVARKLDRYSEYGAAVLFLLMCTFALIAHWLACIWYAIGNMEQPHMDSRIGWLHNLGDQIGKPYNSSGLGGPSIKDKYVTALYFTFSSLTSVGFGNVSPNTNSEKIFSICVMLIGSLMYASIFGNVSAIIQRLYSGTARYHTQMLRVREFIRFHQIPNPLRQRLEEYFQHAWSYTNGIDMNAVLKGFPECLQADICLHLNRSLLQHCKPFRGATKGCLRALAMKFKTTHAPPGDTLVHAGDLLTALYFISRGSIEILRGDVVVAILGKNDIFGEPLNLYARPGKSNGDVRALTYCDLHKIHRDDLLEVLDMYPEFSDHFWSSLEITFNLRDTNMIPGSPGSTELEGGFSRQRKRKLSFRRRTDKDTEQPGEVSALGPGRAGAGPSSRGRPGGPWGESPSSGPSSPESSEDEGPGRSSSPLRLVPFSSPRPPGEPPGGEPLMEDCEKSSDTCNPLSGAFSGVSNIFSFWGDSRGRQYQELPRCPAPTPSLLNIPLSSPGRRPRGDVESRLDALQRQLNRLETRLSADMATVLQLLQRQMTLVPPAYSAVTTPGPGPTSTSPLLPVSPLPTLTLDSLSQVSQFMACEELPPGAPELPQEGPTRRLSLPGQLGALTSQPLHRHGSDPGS

Compound | hERG current change (%, negative = inhibition) at 10uM
C/C(=N\NC(=O)c1ccccc1)c1nc2ccccc2n1C | -16.1%
CCC(C(=O)NCCC(C)C)n1ccc2cc(S(=O)(=O)N3CCCCC3)ccc21 (stereo not shown) | 6.75%
COc1cccc(NC(=O)CCN2C(=O)c3ccccc3S2(=O)=O)c1 | -13.7%
Nc1nc(SCC(=O)c2ccc(Oc3ccccc3)cc2)n[nH]1 | -48.8%
O=C(Nc1ccc(Cl)cc1)Nc1nnc(Cc2ccc([N+](=O)[O-])cc2)s1 | 5.7%
O=c1[nH]cc(COCc2ccccc2)c(=O)[nH]1 | 5.51%
Cc1noc(C)c1C(=O)Nc1nc2ccc(Cl)cc2s1 | 13.3%
C[N+]1(CC(=O)OCCCc2ccccc2)CCCCC1.[I-] | 21%
CCN1CCN(Cc2cccc(Oc3ccc(Cl)cc3)c2)CC1 | -56.9%
COc1ccc(-c2cc(=O)c(C(=O)c3ccc(C)cc3)n[nH]2)cc1 | 10.3%
Cc1ccc(C(=O)N2CCN(c3ccc(NC(=O)CSc4ccc(Cl)cc4)cc3)CC2)cc1 | 11.4%
COc1ccccc1C(=O)Nc1cc(-c2ccc(C)cc2)no1 | 10.3%
O=C(N/N=C/C1CC=CCC1)c1ccc(Cl)cc1O (stereo not shown) | 0.333%
CN(c1ccccc1)c1nc(N)c([N+](=O)[O-])c(NCc2ccco2)n1 | -7.2%
O=C(COc1ccc([N+](=O)[O-])cc1)Nc1ccc(N2CCN(C(=O)c3ccco3)CC2)cc1 | 6.27%
COc1ccc(CNC(=O)C2CCN(S(=O)(=O)c3ccccc3)CC2)cc1 | 19.5%
COc1ccc(OCCn2c(NC(=O)c3ccco3)nc3ccccc32)cc1 | 5.55%
NP(=O)(OCC(F)(F)F)Oc1ccccc1 (stereo not shown) | 21.1%
O=C(O/N=C(\c1ccccc1)c1ccccn1)c1cccc2ccccc12 | -9.62%
CC1(C)Cc2cccc(OCC(=O)NCCOc3ccccc3)c2O1 | -7.43%

Compound | hERG current change (%, negative = inhibition) at 10uM
CCOc1ccc(-n2cnnn2)cc1S(=O)(=O)NCc1ccccc1 | -71%
O=C(O)c1ccc(-c2nc3ccccc3s2)o1 | 19.4%
CCC1=NN(C(=O)c2ccc(Br)cc2)C(O)(c2ccccc2)C1 (stereo not shown) | 0.256%
Nc1ccc(C(=O)NCC2(c3ccccc3)CCCC2)cc1 | -21.8%
CCOc1cc(/C=N/NC(=O)C(=O)N2CCCC2)ccc1O | 8.18%
CC1CC(C)CN(S(=O)(=O)c2ccc(C(=O)N3CC(C)OC(C)C3)cc2)C1 (stereo not shown) | 3.13%
CCc1cccc(NS(=O)(=O)c2ccc3c(c2)NC(=O)C(C)S3)c1 (stereo not shown) | 18.8%
N#C/C(=C\c1ccccc1OCc1ccc(C(=O)O)cc1)C(=O)Nc1ccc(O)cc1 | 15.4%
Cc1ccccc1N1C(=O)c2ccccc2C1Nc1cccnc1 (stereo not shown) | 6.57%
c1ccc(Cc2nn3c(Cn4nnc5ccccc54)nnc3s2)cc1 | -14.6%
Cn1cccc1CC(=O)N/N=C/c1ccc(C(C)(C)C)cc1 | 6.27%
CCc1ccc(/C=C/C(=O)c2cc(Br)ccc(=O)c2O)cc1 | 11%
Cc1ccc(CNc2cnccn2)s1 | 31.7%
CC(C)(C)c1ccc(S(=O)(=O)N2CCN(C3CCCC3)CC2)cc1 | 3.2%
CCOC(=O)N1CCN(C(=O)C(C)N(c2ccccc2)S(C)(=O)=O)CC1 (stereo not shown) | 25.1%
CC1CCN(S(=O)(=O)CCNC(=O)c2ccccc2)CC1 | -5.73%
O=C(O)C[C@H]1c2ccc(C(F)(F)F)cc2S(=O)(=O)N1C1CCCCC1 | 9.71%
CSc1ncc(CO)n1Cc1ccccc1 | 34.9%
Cc1ccc(C(=O)C2=C(O)C(=O)N(Cc3cccnc3)C2c2ccc(Br)cc2)o1 (stereo not shown) | 8%
Cc1ccc(-c2cc(NC(=O)c3ccccc3[N+](=O)[O-])n[nH]2)cc1 | 27.8%

Compound | hERG current change (%, negative = inhibition) at 10uM
COC(=O)C1Cc2c([nH]c3ccccc23)CN1C(C)=O (stereo not shown) | 15.6%
COc1cc(OC)nc(NC(C)=O)n1 | 5.3%
Cc1ccc(NC(=O)c2ccc(COc3ccccc3)o2)nc1 | -20.4%
CCCCNc1nc(Cl)nc(Nc2ccc(C)cc2)n1 | 9.58%
CN(C)c1cc(NC(=O)CN2CCCC2)c2ccccc2n1.O=C(O)C(=O)O | -10.3%
O=C(Cn1c2c(c(-c3ccccc3Cl)cc1=O)CCC2)N1CCC2(CC1)OCCO2 | 0.878%
CCOC(=O)N1CCC(NC(=O)c2ccc3c(c2)sc2nc(-c4ccccc4)cn23)CC1 | -17.5%
Cc1ccc2nsnc2c1S(=O)(=O)N(Cc1cc2cccc(C)c2[nH]c1=O)CC1CCCO1 (stereo not shown) | 6.94%
CCCCN(CCCC)S(=O)(=O)c1ccc(NS(=O)(=O)c2ccc(NC(C)=O)cc2)cc1 | -9.78%
Cn1c(-c2ccsc2)c(-c2cccs2)c2cc(-c3cccc4[nH]ccc34)ccc21 | 14.6%
COc1ccc(S(=O)(=O)N(C)CC(=O)NCc2cccnc2)cc1Cl | 6.77%
Cc1cc(C(=O)Nc2ccc3c(c2)CCC3)c2ccccc2n1 | 10.8%
COc1cccc(C(=O)Nc2cccc(-c3ccc(N4CCOCC4)nn3)c2)c1 | -7.68%
CC(C)NC(=O)NNc1c(Cl)cncc1Cl | 11.2%
CCOC(=O)C1CCN(c2c(NCCC(C)C)c(=O)c2=O)CC1 | -14.7%
Cc1cc2occ(CC(=O)NNC(=O)c3ccccc3F)c2cc1C | 2.66%
CCCOc1ccc(N2C(=O)CC(N3CCOCC3)C2=O)cc1 (stereo not shown) | -3.38%
CCOC(=O)CC1=CC(C)(CC(=O)OCC)C(C#N)(C#N)C(N)=C1C#N (stereo not shown) | -3.35%
